PubChem BioAssay AID686978 (National Center for Advancing Translational Sciences (NCATS), 2013)
Among all 420,000 compounds or so, about 64,000 (15%) were called active. Inconclusive results, whose numbers are uncertain, are shown with a selection of clear calls. The call rests on the fitted dose curve; in most records, active means well fitted inhibition curve with a large enough effect; inconclusive means small, poorly fitted or top-dose-only effect; inactive means flat fitted curve, though single readings scatter. No potency is given beside an inconclusive call; the fits are too rough.
On the % scale 0 is the no-effect control and ±100 the full control effect; potency means the concentration at half of the fitted maximal effect; tags describe the fitted curve by direction and shape.

Assay: qHTS for Inhibitors of human tyrosyl-DNA phosphodiesterase 1 (TDP1): qHTS in cells in absence of CPT; further: nearly all actives have a fitted effect of over 55% in size
Details: DT40 Tdp1-/- hTDP1 cells, no CPT, ATP luminescence, 48 h; activity change, negative = growth inhibition: at 46.2 µM (top of the series) unless noted
Summary of the method: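 DT40 Tdp1-/-;hTDP1 cells, no CPT (DMSO vehicle only), 400 cells/well; compounds pin-transferred; ≥48 hr, 37 °C; CellTiter-Glo 30 min RT dark, luminescence read.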
For `CN1C(c2ccccc2)=NO[C@]1(C)c1ccccc1`, the “activity change, negative = growth inhibition” value was inactive: -7.31%.
With `CSCCC(NC(=O)c1ccc(Cl)cc1Cl)C(=O)OC(C)C(=O)NCc1ccco1` (stereo not given) the “activity change, negative = growth inhibition” value was inactive: -23.6%.
In the case of `COc1ccc(-c2ccc(C(=O)NCc3ccc(F)c(F)c3)c3occc23)c(C)c1`, the Potency was inconclusive [inhibitor, partial curve].
With `CCCCNC(=O)N(O)C1N(/N=C/c2ccccc2F)C(=S)SC1(C)C` (stereo not given) the Potency was inconclusive [inhibitor, single point].
In the case of `CCc1nc2c(OCc3ccccc3C(=O)OC)cccn2c1N(C)C(=O)Nc1ccccc1OC`, the Potency was inconclusive [inhibitor, single point].
For `O=C(c1nc[nH]c1C(=O)N1CCN(c2ccccc2)CC1)N1CCN(c2ccccc2)CC1`, the “activity change, negative = growth inhibition” value was inactive: -7.82%.
For `CSc1ccccc1C(=O)NCCSc1ccc(C)cc1`, the Potency was inconclusive [inhibitor, partial curve].
In the case of `Cc1oc(S(=O)(=O)N(C)C)cc1C(=O)Nc1ccc(Cl)cc1`, the Potency was inconclusive [inhibitor, single point].
With `COc1cc(-c2csc(NC3CCCCC3)n2)cc(OC)c1OC` the Potency was inconclusive [inhibitor, partial curve, poor fit].
With `CCN(CC(=O)Nc1sc2c(c1C#N)CCC(C)C2)CC(=O)NC1CCS(=O)(=O)C1` (stereo not given) the Potency was inconclusive [inhibitor, single point].
With `CC1C/C(=N\NC(=S)NCc2ccccc2)CC(C)(C)C1` (stereo not given) the Potency was active: 25.9 µM.
For `Cc1sc2nc3c(C(=O)N4CCCC4)cc(C(=O)c4ccccc4O)cn3c(=O)c2c1C`, the Potency was active: 13 µM.
In the case of `Cc1noc(C)c1NC(=O)Nc1ccc2c(c1)C(=O)N([C@H](C)CO)C[C@H](C)[C@@H](CN(C)C(=O)Nc1ccccc1)O2`, the “activity change, negative = growth inhibition” value was inactive: -1.47%.
For `COc1cccc(-c2nn(-c3ccccc3)cc2CN(C)Cc2ccon2)c1`, the Potency was active: 11.2 µM.
With `COc1ccccc1NC(=O)Nc1ccc(C)cn1` the “activity change, negative = growth inhibition” value was inactive: -18.2%.
For `Cc1cc(C)c(C(=O)OCc2csc(CC(=O)Nc3ccccc3C)n2)c(C)c1`, the Potency was inconclusive [inhibitor, single point].
For `Cn1ncc2c(NCc3ccccc3)ncnc21`, the Potency was inconclusive [inhibitor, partial curve].
In the case of `Oc1ccc(Br)cc1/C=N/N1CCCCC1`, the Potency was inconclusive [inhibitor, single point].
For `COC(=O)c1scc(-c2ccc(C)cc2)c1S(=O)(=O)Nc1cc(OC)c(OC)c(OC)c1`, the Potency was inconclusive [inhibitor, partial curve].
In the case of `CS(=O)(=O)Nc1cccc(C2=NN(S(=O)(=O)c3ccc(F)cc3)C(c3cccs3)C2)c1` (stereo not given), the Potency was inconclusive [inhibitor, partial curve].
